From paper PMC4336329 (PLoS ONE, 2015)
Among all 310,000 compounds or so, about 14,000 (4.5%) showed an effect of 50% or more. The effect is printed as a negative number. The list shows a part of the results.

biological target: human ether-à-go-go-related gene (hERG) potassium channel (human, UniProt Q12809); experiment: primary screen, population patch clamp on CHO cells stably expressing hERG
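Note: peak tail current of the secondary pulse compared with the same well before compound.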

Chain of human ether-à-go-go-related gene (hERG) potassium channel (Q12809 whole entry, looked up): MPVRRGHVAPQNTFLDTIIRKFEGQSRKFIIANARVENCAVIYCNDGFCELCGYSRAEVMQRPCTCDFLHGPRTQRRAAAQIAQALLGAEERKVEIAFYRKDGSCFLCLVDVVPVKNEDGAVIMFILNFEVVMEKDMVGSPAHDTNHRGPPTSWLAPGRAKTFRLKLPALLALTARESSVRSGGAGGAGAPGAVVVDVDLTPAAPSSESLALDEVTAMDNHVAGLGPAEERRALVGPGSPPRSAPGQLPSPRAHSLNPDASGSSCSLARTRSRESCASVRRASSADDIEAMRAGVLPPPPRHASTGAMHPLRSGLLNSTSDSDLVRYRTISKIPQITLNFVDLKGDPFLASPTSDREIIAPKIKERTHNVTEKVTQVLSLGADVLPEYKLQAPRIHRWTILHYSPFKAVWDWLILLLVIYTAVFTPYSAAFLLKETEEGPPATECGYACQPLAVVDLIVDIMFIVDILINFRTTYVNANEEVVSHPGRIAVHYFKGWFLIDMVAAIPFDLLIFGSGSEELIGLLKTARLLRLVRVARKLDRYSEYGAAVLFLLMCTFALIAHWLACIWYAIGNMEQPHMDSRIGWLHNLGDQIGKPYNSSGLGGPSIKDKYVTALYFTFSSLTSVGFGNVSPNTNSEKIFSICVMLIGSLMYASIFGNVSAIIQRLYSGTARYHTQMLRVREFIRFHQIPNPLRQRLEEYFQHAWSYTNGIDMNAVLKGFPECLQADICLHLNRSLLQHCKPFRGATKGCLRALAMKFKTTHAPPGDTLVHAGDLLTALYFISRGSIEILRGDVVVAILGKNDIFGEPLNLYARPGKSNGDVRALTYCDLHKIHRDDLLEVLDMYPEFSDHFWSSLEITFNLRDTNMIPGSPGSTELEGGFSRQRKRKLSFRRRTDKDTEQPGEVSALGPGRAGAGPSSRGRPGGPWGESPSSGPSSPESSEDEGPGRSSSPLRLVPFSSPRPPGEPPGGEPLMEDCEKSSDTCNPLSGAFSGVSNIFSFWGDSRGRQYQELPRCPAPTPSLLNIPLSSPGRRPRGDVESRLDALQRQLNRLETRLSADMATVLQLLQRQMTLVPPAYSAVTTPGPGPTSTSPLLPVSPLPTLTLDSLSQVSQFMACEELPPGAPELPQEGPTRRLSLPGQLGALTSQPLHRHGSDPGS

Row | SMILES | hERG current change (%, negative = inhibition) at 10uM [%]
1 | CC1CC(C)CN(C(=O)Cn2c(-c3nonc3N)nc3ccccc32)C1 (stereo not shown) | 11
2 | Cc1ccc(N=C2c3ccccc3C(=O)C2[N+](=O)[O-])cc1C (stereo not shown) | 12.7
3 | Cc1noc(C(=O)NCc2ccco2)c1Cl | -15.3
4 | Cc1ccc(OCCNC(=O)c2ccc3ccccc3n2)cc1 | -34.5
5 | O=C(COC(=O)Cc1ccccc1F)Nc1cccc(F)c1 | 22
6 | O=C(Cn1c(-c2cscn2)nc2ccccc21)Nc1cc(F)ccc1F | 16
7 | COc1ccccc1CNC(=O)CSc1ccsc1[N+](=O)[O-] | 9.88
8 | CCc1ccc(NC(=S)N2CCNC(=O)C2CC(=O)OC)cc1 (stereo not shown) | 7.17
9 | CSc1ccccc1NC(=O)C1CCCO1 (stereo not shown) | -0.135
10 | CCOC(=O)C1=C(C)N=c2s/c(=C\c3cccc(OCC(=O)O)c3)c(=O)n2C1c1ccccc1OC (stereo not shown) | 28.7
11 | Cc1cccc(CSc2nnc([C@@H]3CCCN3)o2)c1.Cl | -8.15
12 | CCOC(=O)c1ccc(N/C=C\C(=O)c2cccc(OC)c2)cc1 | -12.8
13 | Cc1cc(Cl)ccc1Oc1nccc(N(C)C)c1C#N | 2.02
14 | O=C1CC(c2ccc(S(=O)(=O)NC3CC3)cc2)CN1 (stereo not shown) | -6.42
15 | COC(=O)C(C)Oc1ccc2c(-c3cccc([N+](=O)[O-])c3)cc(=O)oc2c1 (stereo not shown) | -25.8
16 | O=C(Nn1c(SCc2ccc([N+](=O)[O-])cc2)nc2ccccc2c1=O)c1ccc(F)cc1 | -19
17 | COc1ccc(COC(=O)c2cccc(S(=O)(=O)N3CCN(C(C)=O)CC3)c2)cc1F | -24.4
18 | CCCCNS(=O)(=O)/C=C/c1ccccc1 | 10.4
19 | COc1ccc(OC)c(/C=C/C(=O)OCC(=O)N2CCCC2)c1 | -13.5
20 | Cc1ccc(CCNC(=O)C2CCN(C(=O)c3sccc3-n3cccc3)CC2)cc1 | -22.8

Row | SMILES | hERG current change (%, negative = inhibition) at 10uM [%]
21 | Cc1cc(NC(=O)C2C3C(=O)N(Cc4ccc(Cl)cc4)C(C(=O)NCc4ccccc4)C34C=CC2(C)O4)no1 (stereo not shown) | -22.7
22 | C=CCNC(=O)CSc1nc2sc3c(c2c(=O)n1CCC)CCC3 | -7.64
23 | CCCS(=O)(=O)N1CCN(C(=O)c2ccccc2F)CC1 | -10.6
24 | COc1cc(C(=O)NNC(=O)COc2ccccc2Cl)ccc1OCC(=O)N1CCOCC1 | -6.54
25 | CC(C)COc1cc(=O)[nH]c(SCC(C)C)n1 | -5.01
26 | CC(=O)N/N=c1\sc2ccccc2n1C | 15.9
27 | Cc1cc(C=C2C(=O)N(C)C(=S)N(C)C2=O)c(C)n1-c1ccncc1 | 7.84
28 | S=c1nc(-c2cccc(Br)c2)[nH][nH]1 | 20
29 | COc1cccc(OC)c1C(=O)Nc1nnc(-c2ccc(F)cc2)s1 | 11.5
30 | Cc1cccc(C)c1OCc1nnc(SCC(=O)Nc2ccccc2F)o1 | 10.7
31 | CCC(=O)Nc1c(-c2ccccc2Cl)c(=O)c2ccccc2n1C | 15.4
32 | Cc1nn(Cc2ccccc2)c(C)c1CCC(=O)O | -9.21
33 | COC(=O)CCC(=O)OC1(C)C(=O)C=C2C=C(C3CC3)N(CCCCO)C=C2C1=O (stereo not shown) | 4.26
34 | O=C(Nc1ccc(S(=O)(=O)N2CCOCC2)cc1)c1ccc(Br)o1 | -64.8
35 | COc1ccccc1N1CCN(C/C(O)=C(\C#N)c2nc(-c3ccccc3)cs2)CC1 | 11.6
36 | O=C(CSc1nnnn1-c1ccc(Cl)cc1)NC(=O)Nc1ccc2c(c1)OCCO2 | 0.0445
37 | O=C(Nc1ccncc1)Nc1ccc(F)cc1 | 6.6
38 | O=C(O)C1CC(=O)N(c2ccc(OCc3ccc(Br)cc3)cc2)C1 (stereo not shown) | 6.71
39 | Cc1c(OCc2nn[nH]n2)ccc2c(-c3ccccc3)cc(=O)oc12 | 12.3
40 | COc1cccc(C2/C(=C(\O)c3ccc4c(c3)OCCO4)C(=O)C(=O)N2CC2CCCO2)c1 (stereo not shown) | -13.7

Row | SMILES | hERG current change (%, negative = inhibition) at 10uM [%]
41 | S=c1[nH]nc(COc2ccccc2)n1/N=C/c1cccc(Br)c1 | 22.2
42 | O=S(=O)(Nc1ccc2[nH]ncc2c1)c1ccccc1Cl | 16.9
43 | O=C(NCC1COc2ccccc2O1)c1ccc(Br)s1 (stereo not shown) | 16
44 | O=C(COC(=O)c1cccnc1Cl)c1ccccc1 | -4.84
45 | Cc1cccc(CNC(=O)C2CCCN(c3nn4c(=O)cc(C)nc4s3)C2)c1 (stereo not shown) | -33.8
46 | COc1cccc(-c2cc(C(=O)NCc3ccc(Cl)cc3)no2)c1 | 13.6
47 | COc1ccc(N2CCN(C(=O)CNC(=O)c3ccc(C(C)(C)C)cc3)CC2)cc1 | 0.964
48 | COc1ccc(C(=O)NCC(=O)OCC(=O)N2CCc3ccccc32)cc1 | -32.8
49 | c1ccc2c3c([nH]c2c1)-c1[nH]ncc1CC3 | 1.38
50 | O=C1CCCC2=C1C(c1ccsc1)CC(=O)N2c1ccccc1F (stereo not shown) | 4.64
51 | Cc1ccc(N2CC(C(=O)NCc3ccco3)CC2=O)cc1Cl (stereo not shown) | -4.79
52 | O=C(CSc1ccc2nnc(-c3ccc(Cl)cc3)n2n1)N1CCCc2ccccc21 | 1.71
53 | O=C(NCCN1CCOCC1)c1cc(-c2cccc(Cl)c2)on1 | -4.73
54 | Cc1ccccc1C(=O)NC1CCCCCCC1 | 9.85
55 | CC1CCN(S(=O)(=O)c2ccc3c(c2)N(CC(=O)NCCCN2CCCC(C)C2)C(=O)CS3)CC1 (stereo not shown) | -20.6
56 | Cn1nnnc1SCC(=O)c1c(N)n(C2CC2)c(=O)[nH]c1=O | 19.6
57 | O=C(CSc1ncnc2c1cnn2CCO)Nc1cccc(C(F)(F)F)c1 | -12
58 | Cc1ccc(C)c(N2C(=O)CC(Cc3ccc(Br)cc3)C2=O)c1 (stereo not shown) | 6.6
